Source: the supplement of paper PMC4967469

Assays:
Test in all cases: Viability of human cancer cell lines after 72 h of drug (GDSC screen)
Shikonin = compound: CC(C)=CC[C@@H](O)C1=CC(=O)c2c(O)ccc(O)c2C1=O [Shikonin]; conditions: top dose 16 µM; top dose inferred
Description: (§1)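 Human cancer cell lines in 384-well plates, medium with 10% serum, drug for 72 h over a 256-fold dose range (nine 2-fold or five 4-fold steps up to the top dose). Adherent lines were fixed and stained with the nucleic acid dye Syto60, suspension lines read with resazurin; signal relative to control wells, capped at 0 and 100%. One two-parameter sigmoid per drug and line, fitted in a mixed model over all curves with the slope shared within a line.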

CGP-082996 (CINK4) = compound: CCNc1cc(NC2CCC(O)CC2)nc(Nc2ccc3c(ccn3Cc3ccccc3)c2)n1 [CGP-082996 (CINK4)]; conditions: top dose 5.12 µM; top dose inferred
Description: as §1

HG-5-113-01 = compound: CNC(=O)c1ccc(Nc2cc(Nc3ccccc3S(=O)(=O)C(C)C)c3cc[nH]c3n2)nc1 [HG-5-113-01]; conditions: top dose 10 µM; top dose inferred
Description: as §1

A-770041 = compound: COc1cc(-c2nn([C@H]3CC[C@H](N4CCN(C(C)=O)CC4)CC3)c3ncnc(N)c23)ccc1NC(=O)c1cc2ccccc2n1C [A-770041]; conditions: top dose 5.12 µM; top dose inferred
Description: as §1

XMD8-85 = compound: COc1cc(N2CCN(C)CC2)ccc1Nc1ncc2c(n1)N(C)c1ccccc1C(=O)N2C [XMD8-85]; conditions: top dose 8 µM; top dose inferred
Description: as §1

BMS-536924 = compound: Cc1cc(N2CCOCC2)cc2[nH]c(-c3c(NC[C@@H](O)c4cccc(Cl)c4)cc[nH]c3=O)nc12 [BMS-536924]
Description: as §1

BIRB 0796 = compound: Cc1ccc(-n2nc(C(C)(C)C)cc2NC(=O)Nc2ccc(OCCN3CCOCC3)c3ccccc23)cc1 [BIRB 0796]; conditions: top dose 10 µM; top dose inferred
Description: as §1

SB-525334 = compound: Cc1cccc(-c2[nH]c(C(C)(C)C)nc2-c2ccc3nccnc3c2)n1 [SB-525334]; conditions: top dose 20 µM; top dose inferred
Description: as §1

VX-702 = compound: NC(=O)c1ccc(N(C(N)=O)c2c(F)cccc2F)nc1-c1ccc(F)cc1F [VX-702]; conditions: top dose 2 µM; top dose inferred
Description: as §1

Olaparib = compound: O=C(c1cc(Cc2n[nH]c(=O)c3ccccc23)ccc1F)N1CCN(C(=O)C2CC2)CC1 [Olaparib]
Description: as §1

Wee1 inhibitor 681640 = compound: O=C1NC(=O)c2c1c(-c1ccccc1Cl)cc1[nH]c3ccc(O)cc3c21 [Wee1 inhibitor 681640]; conditions: top dose 2 µM; top dose inferred
Description: as §1

[1] = top dose 4 µM, screen: GDSC drug entry 1091, top dose inferred
[2] = top dose 5.12 µM, screen: GDSC drug entry 62
[3] = top dose 5 µM, screen: GDSC drug entry 1017, top dose inferred
[4] = top dose 10 µM, screen: GDSC drug entry 1495

Row | Cell Line | AUC (Shikonin) | IC50 (Shikonin) | AUC (CGP-082996 (CINK4)) | IC50 (CGP-082996 (CINK4)) | AUC (HG-5-113-01) | IC50 (HG-5-113-01) | AUC (A-770041) | IC50 (A-770041) | AUC (XMD8-85) | IC50 (XMD8-85) | AUC (BMS-536924; [1]) | IC50 (BMS-536924; [1]) | AUC (BMS-536924; [2]) | IC50 (BMS-536924; [2]) | AUC (BIRB 0796) | IC50 (BIRB 0796) | AUC (SB-525334) | IC50 (SB-525334) | AUC (VX-702) | IC50 (VX-702) | AUC (Olaparib; [3]) | IC50 (Olaparib; [3]) | AUC (Olaparib; [4]) | IC50 (Olaparib; [4]) | AUC (Wee1 inhibitor 681640) | IC50 (Wee1 inhibitor 681640)
1 | OVCAR-4 (ovary, adherent) | 0.483 | 0.876 µM | 0.866 | > 5.12 µM | 0.728 | 3.89 µM | 0.625 | 0.838 µM | 0.903 | > 8 µM | 0.924 | > 4 µM | 0.796 | 3.9 µM | 0.909 | > 10 µM | 0.927 | > 20 µM | 0.961 | > 2 µM | 0.96 | > 5 µM | 0.933 | > 10 µM | – | –
2 | PL-21 (acute myeloid leukaemia, suspension) | 0.439 | 0.664 µM | 0.965 | > 5.12 µM | 0.821 | 7.11 µM | 0.963 | > 5.12 µM | 0.848 | 7.51 µM | 0.872 | > 4 µM | 0.502 | 0.325 µM | – | – | 0.979 | > 20 µM | 0.966 | > 2 µM | 0.983 | > 5 µM | 0.968 | > 10 µM | – | –
3 | RS4-11 (leukaemia, suspension) | 0.351 | 0.402 µM | 0.858 | 3.65 µM | 0.587 | 1.06 µM | 0.941 | > 5.12 µM | 0.803 | 3.56 µM | 0.957 | > 4 µM | 0.718 | 1.24 µM | 0.983 | > 10 µM | 0.973 | > 20 µM | – | – | – | – | 0.929 | > 10 µM | 0.905 | > 2 µM
4 | SCC-15 (head and neck, adherent) | 0.482 | 0.879 µM | 0.956 | > 5.12 µM | 0.74 | 3.92 µM | 0.87 | > 5.12 µM | 0.945 | > 8 µM | 0.786 | 2.41 µM | 0.904 | > 5.12 µM | 0.885 | > 10 µM | 0.972 | > 20 µM | – | – | – | – | 0.922 | > 10 µM | 0.947 | > 2 µM
5 | SK-N-DZ (neuroblastoma, adherent) | 0.551 | 1.37 µM | 0.952 | > 5.12 µM | 0.502 | 0.634 µM | 0.945 | > 5.12 µM | 0.851 | 6.03 µM | 0.837 | 2.62 µM | 0.772 | 1.95 µM | – | – | 0.836 | 13 µM | 0.972 | > 2 µM | 0.982 | > 5 µM | 0.985 | > 10 µM | – | –
6 | SKM-1 (haematopoietic neoplasm, suspension) | – | – | 0.93 | > 5.12 µM | 0.721 | 2.84 µM | 0.982 | > 5.12 µM | 0.979 | > 8 µM | 0.687 | 0.884 µM | 0.95 | > 5.12 µM | 0.984 | > 10 µM | – | – | – | – | – | – | 0.923 | > 10 µM | 0.913 | > 2 µM
7 | SNU-C1 (large intestine, suspension) | – | – | 0.943 | > 5.12 µM | 0.738 | 4.19 µM | 0.97 | > 5.12 µM | 0.973 | > 8 µM | 0.732 | 1.59 µM | 0.701 | 1.55 µM | 0.977 | > 10 µM | 0.973 | > 20 µM | 0.973 | > 2 µM | 0.98 | > 5 µM | 0.974 | > 10 µM | 0.959 | > 2 µM
8 | SU-DHL-8 (B-cell lymphoma, suspension) | 0.355 | 0.41 µM | 0.884 | 4.88 µM | 0.819 | 5.2 µM | 0.761 | 1.7 µM | 0.767 | 2.77 µM | 0.981 | > 4 µM | 0.93 | > 5.12 µM | 0.988 | > 10 µM | 0.857 | 14.6 µM | – | – | – | – | 0.907 | > 10 µM | 0.988 | > 2 µM
9 | TC-71 (Ewing sarcoma, adherent) | 0.526 | 1.16 µM | 0.992 | > 5.12 µM | 0.75 | 2.8 µM | 0.991 | > 5.12 µM | 0.992 | > 8 µM | 0.815 | 1.74 µM | 0.984 | > 5.12 µM | 0.952 | > 10 µM | 0.602 | 2.27 µM | – | – | – | – | 0.797 | 3.82 µM | 0.992 | > 2 µM
10 | TE-10 (oesophagus, adherent) | 0.542 | 1.3 µM | 0.839 | 3.4 µM | 0.698 | 2.22 µM | 0.734 | 1.46 µM | 0.854 | 6.11 µM | 0.932 | > 4 µM | 0.68 | 1 µM | 0.988 | > 10 µM | 0.979 | > 20 µM | – | – | – | – | 0.983 | > 10 µM | 0.945 | > 2 µM
11 | no-10 (glioma, adherent) | 0.336 | 0.313 µM | 0.811 | 3.51 µM | 0.873 | > 10 µM | 0.692 | 1.26 µM | 0.806 | 5.21 µM | 0.981 | > 4 µM | 0.818 | 3.76 µM | – | – | 0.98 | > 20 µM | 0.98 | > 2 µM | 0.983 | > 5 µM | 0.956 | > 10 µM | – | –

A lower IC50 marks a more sensitive line; a fit beyond the top or the lowest dose is shown as a bound at that dose. AUC, from the same fit, is the share of area under the viability curve across the 256-fold dose range: 1 means no effect, lower means more sensitive. Where the top dose is marked as inferred, it is not printed in the source and was worked back from the curve model. For some assays here: Where an entry number is given, a second screen of the drug exists; the two often differ.
